Data taken from the supplement of paper PMC4967469.

How the values were obtained:
Test in all cases: Viability of human cancer cell lines after 72 h of drug (GDSC screen)
BX-795 = compound: O=C(NCCCNc1nc(Nc2cccc(NC(=O)N3CCCC3)c2)ncc1I)c1cccs1 [BX-795]; conditions: top dose 5 µM; top dose inferred
Protocol: (§1)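 Human cancer cell lines in 384-well plates, medium with 10% serum, drug for 72 h over a 256-fold dose range (nine 2-fold or five 4-fold steps up to the top dose). Adherent lines were fixed and stained with the nucleic acid dye Syto60, suspension lines read with resazurin; signal relative to control wells, capped at 0 and 100%. One two-parameter sigmoid per drug and line, fitted in a mixed model over all curves with the slope shared within a line.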

PI-103 = compound: Oc1cccc(-c2nc(N3CCOCC3)c3oc4ncccc4c3n2)c1 [PI-103]; conditions: top dose 10.24 µM
Protocol: as §1

GSK690693 = compound: CCn1c(-c2nonc2N)nc2c(C#CC(C)(C)O)ncc(OC[C@H]3CCCNC3)c21 [GSK690693]; conditions: top dose 10.24 µM; top dose inferred
Protocol: as §1

SB-505124 = compound: Cc1cccc(-c2[nH]c(C(C)(C)C)nc2-c2ccc3c(c2)OCO3)n1 [SB-505124]; conditions: top dose 10 µM; top dose inferred
Protocol: as §1

Tretinoin = compound: CC1=C(/C=C/C(C)=C/C=C/C(C)=C/C(=O)O)C(C)(C)CCC1 [Tretinoin]; conditions: top dose 10 µM; top dose inferred
Protocol: as §1

WH-4-023 = compound: COc1ccc(N(C(=O)Oc2c(C)cccc2C)c2ccnc(Nc3ccc(N4CCN(C)CC4)cc3)n2)c(OC)c1 [WH-4-023]; conditions: top dose 5.12 µM; top dose inferred
Protocol: as §1

UNC0638 = compound: COc1cc2c(NC3CCN(C(C)C)CC3)nc(C3CCCCC3)nc2cc1OCCCN1CCCC1 [UNC0638]
Protocol: as §1

[1] = top dose 20 µM, screen: GDSC drug entry 1236, top dose inferred
[2] = top dose 40 µM, screen: GDSC drug entry 245

Cell Line	AUC (BX-795)	IC50 (BX-795) [µM]	AUC (PI-103)	IC50 (PI-103) [µM]	AUC (GSK690693)	IC50 (GSK690693) [µM]	AUC (SB-505124)	IC50 (SB-505124) [µM]	AUC (Tretinoin)	IC50 (Tretinoin) [µM]	AUC (WH-4-023)	IC50 (WH-4-023) [µM]	AUC (UNC0638; [1])	IC50 (UNC0638; [1]) [µM]	AUC (UNC0638; [2])	IC50 (UNC0638; [2]) [µM]
A4-Fuk (B-cell lymphoma, suspension)	0.815	2.9	0.857	8.93	0.955	> 10.2	0.963	> 10	0.882	> 10	0.925	> 5.12	0.812	11.3	0.757	14.3
A101D (melanoma, adherent)	0.772	2.39	0.981	> 10.2	0.981	> 10.2	0.94	> 10	0.851	> 10	0.85	> 5.12	0.84	18.7	0.803	25.4
A253 (head and neck, adherent)	0.963	> 5	0.789	4.4	0.82	5.68	0.988	> 10	0.981	> 10	0.965	> 5.12	0.96	> 20	0.952	> 40
A388 (skin, adherent)	0.921	> 5	0.483	0.572	0.961	> 10.2	0.94	> 10	0.98	> 10	0.878	> 5.12	0.915	> 20	0.903	> 40
A498 (kidney, adherent)	0.861	> 5	0.977	> 10.2	0.962	> 10.2	0.945	> 10	0.966	> 10	0.397	0.146	0.935	> 20	0.972	> 40
A704 (kidney, adherent)	0.865	4.19	0.989	> 10.2	0.988	> 10.2	0.961	> 10	0.968	> 10	0.125	0.0215	0.891	> 20		
ALL-PO (lymphoblastic leukaemia, suspension)	0.346	0.114	0.311	0.183	0.818	6.19	0.971	> 10	0.507	0.652	0.905	> 5.12	0.811	11.4	0.509	2.65
ALL-SIL (T-cell leukaemia, suspension)	0.749	1.43	0.316	0.213	0.549	0.852	0.956	> 10	0.987	> 10	0.075	< 0.02	0.642	2.91	0.492	2.39
AM-38 (glioma, semi-adherent)	0.932	> 5	0.297	0.169	0.98	> 10.2	0.986	> 10	0.925	> 10	0.988	> 5.12	0.987	> 20	0.749	13.2
AMO-1 (haematopoietic neoplasm, suspension)	0.812	2.22	0.474	0.548	0.924	> 10.2	0.973	> 10	0.925	> 10	0.991	> 5.12	0.716	4.6	0.533	3.03
ARH-77 (myeloma, suspension)	0.984	> 5	0.176	0.0706	0.79	4.38	0.975	> 10	0.952	> 10	0.924	> 5.12	0.794	8.8	0.687	8.19
ATN-1 (T-cell lymphoblastic leukaemia, suspension)	0.398	0.167	0.484	0.58	0.903	> 10.2	0.976	> 10	0.077	< 0.0391	0.95	> 5.12	0.805	9.29	0.711	9.43
BB49-HNC (head and neck, adherent)	0.836	> 5	0.976	> 10.2	0.977	> 10.2	0.951	> 10	0.978	> 10	0.858	> 5.12	0.944	> 20	0.942	> 40
BC-1 (B-cell lymphoma, suspension)	0.937	> 5	0.354	0.271	0.942	> 10.2	0.953	> 10	0.951	> 10	0.973	> 5.12	0.791	7.56	0.713	8.96
BE2-M17 (neuroblastoma, adherent)	0.883	> 5	0.832	6.83	0.987	> 10.2	0.917	> 10	0.962	> 10	0.987	> 5.12	0.942	> 20	0.924	> 40
BE-13 (lymphoblastic leukaemia, suspension)	0.603	0.586	0.76	3.39	0.98	> 10.2	0.978	> 10	0.916	> 10	0.891	> 5.12	0.71	4.68	0.541	3.2
BV-173 (chronic myeloid leukaemia, suspension)	0.61	0.601	0.407	0.368	0.91	> 10.2	0.969	> 10	0.6	1.13	0.125	0.0254	0.718	4.75	0.697	8.25

Cell Line	AUC (BX-795)	IC50 (BX-795) [µM]	AUC (PI-103)	IC50 (PI-103) [µM]	AUC (GSK690693)	IC50 (GSK690693) [µM]	AUC (SB-505124)	IC50 (SB-505124) [µM]	AUC (Tretinoin)	IC50 (Tretinoin) [µM]	AUC (WH-4-023)	IC50 (WH-4-023) [µM]	AUC (UNC0638; [1])	IC50 (UNC0638; [1]) [µM]	AUC (UNC0638; [2])	IC50 (UNC0638; [2]) [µM]
Becker (glioma, adherent)	0.814	3.17	0.391	0.308	0.888	> 10.2	0.962	> 10	0.978	> 10	0.324	0.0967	0.833	15.3	0.968	> 40
C2BBe1 (large intestine, adherent)	0.875	> 5	0.638	1.63	0.976	> 10.2	0.96	> 10	0.933	> 10	0.845	4.48	0.978	> 20	0.942	> 40
CA46 (Burkitt lymphoma, suspension)	0.944	> 5	0.226	0.0948	0.815	6.14	0.959	> 10	0.962	> 10	0.873	> 5.12	0.75	6.98	0.464	1.98
CAS-1 (glioma, adherent)	0.831	4.91	0.662	2.13	0.915	> 10.2	0.977	> 10	0.981	> 10	0.681	1.24	0.894	> 20	0.81	31.3
CCRF-CEM (lymphoblastic leukaemia, suspension)	0.616	0.615	0.293	0.187	0.311	0.209	0.966	> 10	0.939	> 10	0.989	> 5.12	0.668	3.36	0.523	2.86
CESS (acute myeloid leukaemia, suspension)	0.991	> 5	0.104	0.0437	0.231	0.123	0.977	> 10	0.988	> 10	0.977	> 5.12	0.824	9.67		
CGTH-W-1 (thyroid, adherent)	0.533	0.384	0.464	0.511	0.982	> 10.2	0.947	> 10	0.986	> 10	0.979	> 5.12	0.609	2.48	0.775	15.8
CHP-126 (neuroblastoma, suspension)	0.779	2.1	0.89	> 10.2	0.981	> 10.2	0.956	> 10	0.95	> 10	0.964	> 5.12	0.824	12.4	0.657	6.93
CL-11 (large intestine, adherent)	0.901	> 5	0.962	> 10.2	0.987	> 10.2	0.986	> 10	0.975	> 10	0.986	> 5.12	0.977	> 20	0.987	> 40
CMK (acute myeloid leukaemia, suspension)	0.858	3.15	0.307	0.203	0.962	> 10.2	0.973	> 10	0.95	> 10	0.989	> 5.12	0.821	9.34	0.602	4.54
COLO-320-HSR (large intestine, suspension)	0.923	> 5	0.74	2.77	0.988	> 10.2	0.988	> 10	0.99	> 10	0.982	> 5.12	0.847	11.9	0.893	36.7
COLO-668 (small cell lung carcinoma, adherent)	0.92	> 5	0.603	1.23	0.978	> 10.2	0.982	> 10	0.987	> 10	0.981	> 5.12	0.82	11.4	0.674	7.64
COLO-684 (endometrium, suspension)	0.923	> 5	0.125	< 0.04	0.427	0.393	0.962	> 10	0.969	> 10	0.971	> 5.12	0.817	13	0.696	9.61
COLO-800 (melanoma, adherent)	0.782	2.03	0.831	6.22	0.943	> 10.2	0.963	> 10	0.961	> 10	0.988	> 5.12	0.706	4.65	0.876	37.7
COLO-824 (breast, adherent)	0.915	> 5	0.775	4.13	0.982	> 10.2	0.977	> 10	0.975	> 10	0.986	> 5.12	0.813	11	0.685	8.31
COR-L88 (small cell lung carcinoma, adherent)	0.934	> 5	0.908	> 10.2	0.984	> 10.2	0.977	> 10	0.983	> 10	0.928	> 5.12	0.85	19.8	0.64	6.56

Lines with a small IC50 respond at low doses; where the fit passes the top or lowest dose, that dose stands as a limit. The AUC spans the tested range (256-fold, ending at the top dose) of the same fit; it is 1 without any effect and falls as sensitivity rises. For some assays here: A top dose marked as inferred comes from the curve model; the source does not state it. For some assays here: Where an entry number is given, a second screen of the drug exists; the two often differ.
